# Further values from the same series stand in other lists.
# Tested on: human ventricular trabeculae
# Test: Action potential recording and pro-arrhythmic score analysis in human ventricular trabeculae (hVT);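 further: sharp microelectrode action potential recordings at 37°C in Tyrode-perfused trabeculae, 4 cumulative concentrations each applied 31 min, values averaged over last 30 APs, vehicle 0.1% DMSO as control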
# Settings: 2Hz
structure (smiles),measurement,setting,value
"COc1cc2nc(N(C)CCCNC(=O)C3CCCO3)nc(N)c2cc1OC (centres unmarked) [ALFUZOSIN, Alfuzosin]",STV percentage change compared to vehicle control,1.6-FOLD free ETPC (0.006µM),8%
same,STV percentage change compared to vehicle control,17-FOLD free ETPC (0.006µM),13%
same,STV percentage change compared to vehicle control,167-FOLD free ETPC (0.006µM),10%
same,STV percentage change compared to vehicle control,1667-FOLD free ETPC (0.006µM),-4%
"COc1cc(N)c(Cl)cc1C(=O)NC1CCN(CCCOc2ccc(F)cc2)CC1OC (centres unmarked) [CISAPRIDE, Cisapride]",STV percentage change compared to vehicle control,1-FOLD free ETPC (0.003µM),282%
same,STV percentage change compared to vehicle control,10-FOLD free ETPC (0.003µM),155%
same,STV percentage change compared to vehicle control,100-FOLD free ETPC (0.003µM),214%
"Nc1nnc(-c2cccc(Cl)c2Cl)c(N)n1 [LAMOTRIGINE, Lamotrigine]",STV percentage change compared to vehicle control,0.6-FOLD free ETPC (17µM),-6%
same,STV percentage change compared to vehicle control,6-FOLD free ETPC (17µM),262%
same,STV percentage change compared to vehicle control,18-FOLD free ETPC (17µM),1720%
same,STV percentage change compared to vehicle control,59-FOLD free ETPC (17µM),870%
"Cc1cccc(C)c1OCC(C)N (centres unmarked) [MEXILETINE, Mexiletine]",STV percentage change compared to vehicle control,73-FOLD free ETPC (4.1µM),3767%
"O=C1NCCN1CCN1CCC(c2cn(-c3ccc(F)cc3)c3ccc(Cl)cc23)CC1 [SERTINDOLE, Sertindole]",STV percentage change compared to vehicle control,1.5-FOLD free ETPC (0.002µM),98%
same,STV percentage change compared to vehicle control,15-FOLD free ETPC (0.002µM),-18%
same,STV percentage change compared to vehicle control,150-FOLD free ETPC (0.002µM),29%
same,STV percentage change compared to vehicle control,1500-FOLD free ETPC (0.002µM),-32%
"CC(C)(C)c1ccc(C(O)CCCN2CCC(C(O)(c3ccccc3)c3ccccc3)CC2)cc1 (centres unmarked) [TERFENADINE, Terfenadine]",STV percentage change compared to vehicle control,1-FOLD free ETPC (0.009µM),56%
same,STV percentage change compared to vehicle control,11-FOLD free ETPC (0.009µM),7%
same,STV percentage change compared to vehicle control,111-FOLD free ETPC (0.009µM),26%
same,STV percentage change compared to vehicle control,1111-FOLD free ETPC (0.009µM),-2%

# — PMC5760531, “Action Potential Recording and Pro-arrhythmia Risk Analysis in Human Ventricular Trabeculae” (Frontiers in Physiology, 2018)
